Several values for one entry are separate records, joined by “and”; a condition that tells them apart may be missing. Equal values may be shown once.
How the values were obtained:
[1] = target: T1, Mouse TLL1 (mouse, UniProt Q62381 148-1013, limits assumed); experiment: cell-based or functional assay
T1 sequence (looked up): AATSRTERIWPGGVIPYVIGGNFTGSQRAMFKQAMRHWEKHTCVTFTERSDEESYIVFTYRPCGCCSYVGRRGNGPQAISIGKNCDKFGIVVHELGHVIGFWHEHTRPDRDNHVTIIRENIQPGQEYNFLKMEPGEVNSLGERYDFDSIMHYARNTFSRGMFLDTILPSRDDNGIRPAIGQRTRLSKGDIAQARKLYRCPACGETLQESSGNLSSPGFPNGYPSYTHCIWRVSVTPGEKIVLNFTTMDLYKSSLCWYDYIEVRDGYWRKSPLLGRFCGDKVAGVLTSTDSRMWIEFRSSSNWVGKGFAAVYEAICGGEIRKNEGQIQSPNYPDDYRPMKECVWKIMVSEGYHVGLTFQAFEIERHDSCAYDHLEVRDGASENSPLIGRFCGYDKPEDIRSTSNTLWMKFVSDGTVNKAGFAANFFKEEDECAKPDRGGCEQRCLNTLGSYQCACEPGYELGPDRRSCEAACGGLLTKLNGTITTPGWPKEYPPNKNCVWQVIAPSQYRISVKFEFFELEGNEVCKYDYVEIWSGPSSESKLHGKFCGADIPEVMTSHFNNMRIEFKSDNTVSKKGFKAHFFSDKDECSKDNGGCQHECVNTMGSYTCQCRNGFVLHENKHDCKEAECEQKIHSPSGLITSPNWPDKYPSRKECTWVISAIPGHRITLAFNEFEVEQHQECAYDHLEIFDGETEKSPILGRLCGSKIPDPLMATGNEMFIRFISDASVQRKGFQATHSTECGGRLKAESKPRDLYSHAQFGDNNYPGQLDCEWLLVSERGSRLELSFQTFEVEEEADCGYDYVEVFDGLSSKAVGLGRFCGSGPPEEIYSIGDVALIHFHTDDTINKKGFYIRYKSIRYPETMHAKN

[2] = target: T2, Mouse BMP1 CD+CUB1 truncated antigen (mouse, UniProt P98063 126-439, limits assumed); experiment: SPR, mAb captured on protein A/G, HBS-EP
T2 construct: domain: CD+CUB1
T2 sequence (looked up): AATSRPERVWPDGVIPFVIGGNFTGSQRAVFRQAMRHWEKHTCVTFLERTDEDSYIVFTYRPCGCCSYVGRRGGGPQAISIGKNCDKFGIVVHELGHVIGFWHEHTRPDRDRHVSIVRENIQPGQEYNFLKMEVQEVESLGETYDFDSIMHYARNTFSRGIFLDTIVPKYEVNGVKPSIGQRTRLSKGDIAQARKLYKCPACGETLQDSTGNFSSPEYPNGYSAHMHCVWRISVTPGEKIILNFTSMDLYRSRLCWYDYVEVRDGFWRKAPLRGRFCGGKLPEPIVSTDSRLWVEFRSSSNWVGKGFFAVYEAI
Description: (§1) Both antibodies 13Y039-4B06-4334 and 13Y039-3E07-2944 and the reverse chimeric antibodies were evaluated for binding to human TLL2 CD+CUB1 and mouse BMP1 CD+CUB1 truncated antigens by SPR on a BIACORE T200. Protein A/G was immobilised to a CM5 sensor chip via amine coupling and the antibodies were captured to the protein A/G surface. The antigens were passed over the captured antibody at various concentrations. The measured affinities to human TLL2 CD+CUB1 are shown in Table 2 and the measured affinities to mouse BMP1 CD+CUB1 are shown in Table 3.

[3] = target: T3, Human TLL2 CD+CUB1 truncated antigen (human, UniProt Q9Y6L7 150-463, limits assumed); experiment: SPR, mAb captured on protein A/G, HBS-EP
T3 construct: domain: CD+CUB1
T3 sequence (looked up): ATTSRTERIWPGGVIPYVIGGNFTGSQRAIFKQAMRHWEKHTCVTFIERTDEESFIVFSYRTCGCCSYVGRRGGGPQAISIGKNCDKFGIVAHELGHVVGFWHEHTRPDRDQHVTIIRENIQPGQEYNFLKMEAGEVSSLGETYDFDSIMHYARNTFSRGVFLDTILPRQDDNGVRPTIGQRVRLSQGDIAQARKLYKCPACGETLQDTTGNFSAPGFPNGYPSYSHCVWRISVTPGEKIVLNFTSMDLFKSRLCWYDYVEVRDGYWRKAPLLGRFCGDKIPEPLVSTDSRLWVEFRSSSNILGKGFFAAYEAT
Description: as §1

[4] = target: T4, Mouse BMP1-3: 126-707 (mouse, UniProt P98063 126-707); experiment: cell-based or functional assay
T4 sequence (looked up): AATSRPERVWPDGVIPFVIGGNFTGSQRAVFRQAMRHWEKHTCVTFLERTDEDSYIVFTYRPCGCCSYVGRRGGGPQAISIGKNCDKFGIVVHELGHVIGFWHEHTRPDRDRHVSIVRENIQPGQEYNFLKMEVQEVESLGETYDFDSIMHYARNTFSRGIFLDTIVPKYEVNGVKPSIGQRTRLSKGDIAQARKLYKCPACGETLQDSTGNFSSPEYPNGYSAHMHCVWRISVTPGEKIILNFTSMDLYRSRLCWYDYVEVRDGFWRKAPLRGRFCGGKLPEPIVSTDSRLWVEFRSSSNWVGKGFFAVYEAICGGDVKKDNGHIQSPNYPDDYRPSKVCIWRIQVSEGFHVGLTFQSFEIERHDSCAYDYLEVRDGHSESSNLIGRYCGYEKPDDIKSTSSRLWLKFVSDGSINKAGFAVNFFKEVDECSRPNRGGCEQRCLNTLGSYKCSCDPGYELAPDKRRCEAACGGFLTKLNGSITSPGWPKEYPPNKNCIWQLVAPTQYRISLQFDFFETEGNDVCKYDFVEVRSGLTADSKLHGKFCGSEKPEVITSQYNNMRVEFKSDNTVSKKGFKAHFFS

- IC50, FRET enzyme activity, 800 pM biotinylated mTLL-1 [1]: 0.14 nM
- Kd [2]: 6.1 nM and 5.23 nM
- binding result [3]: no binding
- IC50 (read off the curve) [4]: ~0.05 nM
B1: 13Y039-3E07-2944 (antibody, human IgG1, kappa)
heavy: QVQLQQWGAGLLKPSETLSLTCAVYGGSFFGDYWSWIRQPPGKGLEWIGEIDWSGATNYNPSLKSRVTISVDTSKNQFSLKLSSVTAADTAVYYCARGGSKELSFDIWGQGTMVTVSS[gap - human IgG1 constant region with L235A G237A (EU numbers)]
light: DIQMTQSPSSLSASVGDRVTITCQASQDIANYLNWYQQKPGKAPKLLIYDASNLETGVPSRFSGSGSGTDFTFTISSLQPEDIATYYCQQADTLPFTFGGGTKVEIKRTVAAPSVFIFPPSDEQLKSGTASVVCLLNNFYPREAKVQWKVDNALQSGNSQESVTEQDSKDSTYSLSSTLTLSKADYEKHKVYACEVTHQGLSSPVTKSFNRGEC
notes: Fully human IgG1 LAGA, kappa; HEK expressed; also called HEK-expressed 13Y039-3E07-2944

Source: patent publication US20230279089A1 (GlaxoSmithKline, published 2023)
